# Data reported in the supplement of paper PMC12632987.
# Over roughly 2,300 sequences, “median log2 fold change of GCK-ALFA target abundance (FLAG IP / Myc IP barcode read proportion)” has its median near 0.095; the lowest 2% begin near -0.47. This is one part of the list.
# B1: LC3A_free_26_2154 (protein)
# chain: DHFVDLVALDKAIDYLEKALELLEADPNASEKLKELVRKALEELKKETLESLKKALELLKEALKLLAEDKSLDPKTKAELTKLLTKAIELVKENIEIAES
# B2: LC3A_3_1562 (protein)
# chain: GEKLIEELLKELKEAGASEEVIEAVRKAAEALLERGYEEALKEFAEEMRKLLDLPDEYLLEFATEVLETVETEDLNEEELIERIKEIARTVRSAAEIIEL
# B3: LC3A_3_1870 (protein)
# chain: MDEVIAEILALLEALGRSEETIAAARELLEALKEKGYLEAAKTLLEELKKLKDLPDELLLDMFEDLLRAVKEENLNEEETIEKIKEEATTAKNEKEIIEL
# B4: LC3A_17_539 (protein)
# chain: KEELKEELKKLIEEAEKLVEEVKPYIPEEAEKAKKRLKEAKKLLEEGKLKEAAELLAETADEMADAVSETEWEDPLKRTLLELEFDSLAIEAESILLKLE
# B5: LC3A_28_960 (protein)
# chain: SELEKHLEEVLKRAKEAAEKGEPEVFVIKVPGTANEEDIEKVIEALKEIAEILKDVKGSAIIIEVDSGVKQEHIDKIADAAEEIEKKYPNITVIIALDED
# B6: LC3A_3_1570 (protein)
# chain: SEELLERGLRLLREAGFSEEVIEAARRTLEALLERGAEKAAEAVLETLLKLKDAPEELKLDLLEDVLELVETSTDSLEELEKAIKEELQVFLNESEIEEL
# B7: LC3A_free_8_2541 (protein)
# chain: NSQEATRKVTEKLDELEEELRELAKKLGLERLDILELELLIGSTIAEVIGLSDGSIEEIRKAVEEGFAEVLKKAKELSPELAELVEKGKKEILELLKKLE
# B8: LC3A_free_39_2195 (protein)
# chain: SEEEREEAKKEILELAAEYGEEAEKLAKELLELIGDDLERIKALLEALKKAKEEGVDILELLKEALELAKKLKAEGKSKEEIAEEVLELIEDYINLIPID
# B9: LC3A_74_2077 (protein)
# chain: SLTPEEAEIVLEALATAELLKELAKENPENKEKLLEKAKRLRELAEKVIELAGLDKELYESGGEIEAELLLDKENITVEEALERAEKKLEEVEKLLKKLE
# B10: LC3A_3_1649 (protein)
# chain: MEEKLEELEEELRKAGHSEETIEAFRETAEELIKRGYYEALEVLIEEVRKLKDLPDEILLAMLEDILRYIREEDASEEEVIEKIKEEARIARNEGEIIEL
# B11: LC3A_127_180 (protein)
# chain: STLEEALRLAEEIIRLAEEMLKPETSREERKELAKRIIELAERLKELQPELKEDADELIELAKEVLELFEKGEELNEYIEMLIEGIRVTAELILLKLEEK
# B12: LC3A_free_46_2344 (protein)
# chain: YKVEVTVDLRAAPKEETEATVKELEEKAKEIAKKYGAEVKIEVEFIENEDGTTSAIVKITFTAPTLETAQAIAQAMLDKIDELDAKTGLVGLVSVEIIET
# B13: LC3A_free_8_2495 (protein)
# chain: NVEKLVKAALKGLDKLEEELTKKAKELGLSRLDILELELEVGSTIADVISVSDEPPEKIIETTREGLEDIIKLAAELSEELAKLAKEKSKEILEELEKLK
# B14: LC3A_3_1350 (protein)
# chain: SEELIERLVERLREAGFSEEVIAAARRLLELLAKKGHEEAMERVVEVLLEHKDAPEEHIIEVLNNAAAEVEANPNLTEEEVEELIKLLDNDLEIEPIEEE
# B15: LC3A_3_1439 (protein)
# chain: MEELLKEAEKVLKEIGASEEARKAVLELVRLALEAGEEELVKELIKVLKKAKKVKSEDLLEAAERALRRIREEGVPVEEAMKEFIEEIRLLELEEEIEEL
# B16: LC3A_3_1472 (protein)
# chain: LEERLEEVLKRLREAGASEEVLEAVREAYEKLKELGHEEAAKTFIEEMEKLVGLPSELLLAFAEDVLAAVEKYADDPEKLIEEIKSIAAATRNEAEIIEL
# B17: LC3A_free_47_2437 (protein)
# chain: ATEVEKLEVVYEPGKEEEFREKVEEAIEEARRIATEEGKEVEVTIIVDDSPEAQALAREAEERFKAAAKEIGAKMTILVEYRDPETGASIIEITKVEPPP
# B18: LC3A_3_1582 (protein)
# chain: MEEMIEEYVERLREAGLSEEVIEKAREVITLLLERGWEETAKLVAEGLLELKDAEEELLLETLEEIKKIAEDESLSKEEVLKKVKELLSTAKSESEIIEL
# B19: LC3A_3_1478 (protein)
# chain: LEEELKAALEELRAAGASDEVLAAFEAAFKKLKELGWENAAKTFIEEARKLAGLPDELLLAFAADVEEAIEKYSNDEEKLAEEIKKIAAATLAEGEIIEL
# B20: LC3A_147_420 (protein)
# chain: YKVTVTADFIVKADPETALAAIKALAEELKKEGAKEVKIEVETDPETGEVFVTVTVVAEKETEEEAQAFANEVIDRFEALEEAHKDILKLGMISVEIEKK
# B21: LC3A_45_1942 (protein)
# chain: KTIYVAEIDILLKGSEEDLEKAKKIAKEVAKKYGVELEIDEELNKELNEKTKEDGYKFLRLTLKSESEEKVSKAADEIEEKLLEEFKGKVSSIISFSKEE
# B22: LC3A_28_1194 (protein)
# chain: SLADEAIAALRAQTEAALAAGSDEVITVTITSEMSLEDVERIAEAMREAAERLASVPSVSIVVDVESGVPQEAIDLLAETGEEIEAKYPNVTVIIALDED
# B23: LC3A_147_442 (protein)
# chain: VEIEIDILVKGEEAKEEVIKKIKEIVEELKEKGFEVELEIEVEKLDEDTYFIKVKIKVKAETKEEAEEAENLILDKIDEMEEELKDKILGSIISVEIEEE
# B24: LC3A_free_8_2453 (protein)
# chain: DSKKLAEKAIEILEELEEKLEKLLKKAGANHLEILDVKLEVGSVIAEVVSLSDESPEKIADAAIEGIDEVLKLVKELKPEIAEEAEKLAEEAKKKIKEAL
# B25: LC3A_147_443 (protein)
# chain: VEVEIDILVKGEEAVEKVKEGIKAIVEKLKEKGYKVKLEIKVEKIDENTYYIEVKIIVEAETEEEAEEARDIVLDGIDELEEELKDEILGSIISVEIIKK
# B26: LC3A_free_8_2531 (protein)
# chain: NVQEMVDLALKELDKLEKIAVEKAKELGLSRTDILELELVIGSAKIDIIEASDKSVEEIYKLFKEELKEILEEAKKYGEELYKEVEKKAKEALKKMEEAK
# B27: LC3A_free_39_2232 (protein)
# chain: MEEELEKKIKEIAKEGGIDYEYVKAKMEEIQKVGGLSKEEMLKIAEKLLEAVKAGADAEEILDRMLEITKELKAQGKSPEEILKAILEEIEDARNLIPLD
# B28: LC3A_3_1650 (protein)
# chain: AEERIEELLEELRELGKSEEVLEAVRRALEALLERGYYEALETFIELMRELADLSDELLLQLANDVLELVETSDLSEEELTEEIKKIATTIRNEGEIIEL
# B29: LC3A_28_1210 (protein)
# chain: SAVEEAIAAFRAQVAAAIAAGEPQTVVVRIPGTVTPEGARRIMEAVREEVARAADIPGLAIVIDLDGDVSPEVERIVGEAAEEIEAEFPNVTVIIALEER
# Target: MAP1LC3A, Q9H492
# Assay: median log2 fold change of GCK-ALFA target abundance (FLAG IP / Myc IP barcode read proportion) (log2 ratio); each designed protein is fused to an ALFA-tag nanobody in HEK293 cells to bring the named protein to FLAG-tagged glucokinase (GCK); Myc marks an untargeted standard; higher = target protein stabilised (more abundant)
# Details: target protein: 3xFLAG-MCP-GCK-ALFA reporter; HEK293 landing pad (RPLP)
# Procedure, shortened: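 The readout is target abundance, the per-binder median log2 ratio of FLAG to Myc barcode read proportions. It came from HEK293 landing-pad cells carrying a recombined ALFA-nanobody-fused binder library, induced with 2 μg mL^−1 doxycycline and transfected with a plasmid for a FLAG-tagged target and a Myc-tagged standard. After 48 h, lysates were immunoprecipitated with anti-FLAG and anti-Myc, and circular RNA barcodes were reverse transcribed, amplified and sequenced. Each barcode needed a proportion of at least 10^−7 in both replicates and each binder at least 3 barcodes per replicate, a pseudocount of 10^−6 was added, and the replicates were pooled.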
row,Binder,median log2 fold change
1,B1,0.167
2,B2,-0.0121
3,B3,0.102
4,B4,-0.51
5,B5,-0.165
6,B6,0.107
7,B7,-0.0666
8,B8,0.275
9,B9,0.214
10,B10,0.179
11,B11,0.0149
12,B12,0.257
13,B13,-0.196
14,B14,0.314
15,B15,0.115
16,B16,0.213
17,B17,0.233
18,B18,0.212
19,B19,0.239
20,B20,0.0454
21,B21,0.247
22,B22,0.0234
23,B23,-0.21
24,B24,0.172
25,B25,0.256
26,B26,-0.0124
27,B27,0.145
28,B28,0.184
29,B29,0.115
